Results: PubChem BioAssay AID488969 (Vanderbilt High Throughput Screening Facility, 2010)
Whole data set: some 110,000 compounds, median “z-score” near -0.1, cut for the highest 2% near 2. The list shows a part of the results. Active and inactive are the calls of the source.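 Rule for the calls: active = z-score in the third read window above 3 or below -3; inactive = the rest.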

These compounds were tested against Metabotropic glutamate receptor 8 (Rattus norvegicus) (UniProt P70579) (assay: mGluR8 Gi/Go-coupled signaling modulation – cell-based, rat, thallium flux, HTS, primary screen (AID 488969)). Conditions: HEK293 rat mGluR8, GIRK (G protein-gated inwardly rectifying potassium channel) thallium flux, FluoZin2; at 10 µM; stronger effect = higher value; submaximal glutamate (EC20) added with thallium.
Sequence of UniProt P70579 (P70579 whole entry, looked up): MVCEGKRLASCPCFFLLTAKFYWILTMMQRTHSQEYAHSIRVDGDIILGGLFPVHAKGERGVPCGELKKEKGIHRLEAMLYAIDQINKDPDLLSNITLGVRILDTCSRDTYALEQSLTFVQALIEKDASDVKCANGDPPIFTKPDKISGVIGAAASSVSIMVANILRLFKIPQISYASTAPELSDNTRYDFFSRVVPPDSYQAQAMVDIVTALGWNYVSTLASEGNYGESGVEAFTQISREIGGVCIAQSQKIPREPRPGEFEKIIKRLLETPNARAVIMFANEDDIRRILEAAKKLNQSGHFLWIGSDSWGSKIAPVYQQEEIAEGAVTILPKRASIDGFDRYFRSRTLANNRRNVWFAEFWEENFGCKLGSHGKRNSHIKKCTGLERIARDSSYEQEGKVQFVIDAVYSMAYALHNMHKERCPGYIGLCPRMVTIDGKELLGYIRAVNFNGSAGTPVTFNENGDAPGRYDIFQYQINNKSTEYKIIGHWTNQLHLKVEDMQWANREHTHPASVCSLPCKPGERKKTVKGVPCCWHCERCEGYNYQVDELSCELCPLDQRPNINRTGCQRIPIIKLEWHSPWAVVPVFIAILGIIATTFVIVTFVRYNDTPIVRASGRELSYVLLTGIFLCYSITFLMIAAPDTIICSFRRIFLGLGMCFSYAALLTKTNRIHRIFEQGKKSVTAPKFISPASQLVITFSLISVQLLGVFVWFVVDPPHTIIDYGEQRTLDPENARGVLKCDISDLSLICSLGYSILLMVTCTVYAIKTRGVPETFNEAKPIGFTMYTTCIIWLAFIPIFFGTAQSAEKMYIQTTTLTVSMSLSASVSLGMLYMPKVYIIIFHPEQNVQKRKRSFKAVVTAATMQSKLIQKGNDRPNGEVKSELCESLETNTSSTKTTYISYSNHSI

Row | SMILES | z-score
1 | N#C/C(=C/c1ccc(OCc2ccccc2)cc1)C(=O)NC1CCCCC1 | 0.0182
2 | CCCNC(=O)Cn1cnc([N+](=O)[O-])n1 | 0.245
3 | Cc1nnc(NC(=O)c2ccccc2F)s1 | 0.0729
4 | Nc1nonc1C(=Nc1ccc(Br)cc1)NO | 0.127
5 | COC(=O)Cc1c(C)c2c(O)cc(C)cc2oc1=O | -0.16
6 | O=C(Cc1n[nH]c(=O)[nH]c1=O)N/N=C/c1cccc(O)c1 | -0.575
7 | CC(C)NC(=O)CC(c1ccccc1)c1cc(Br)ccc1O (stereo unspecified) | -0.268
8 | O=S(=O)(/N=C(/Nc1ccccn1)c1ccccc1)c1ccc(Cl)cc1 | 0.031
9 | Cc1cc(NC(=O)CN2C(=O)NC3(CCCCC3C)C2=O)no1 (stereo unspecified) | 0.169
10 | Cc1ccc(C)n1-c1ccc(C(=O)O)cc1 | -1.12
11 | CC(C)(C)C1CCC(=NNc2ccc(S(N)(=O)=O)cc2[N+](=O)[O-])CC1 (stereo unspecified) | -0.138
12 | O=C(/C=C/c1ncc(C(F)(F)F)cc1Cl)OCc1ccccc1 | -0.0986
13 | Cn1cnnc1SCC(=O)NCc1cccc(C(F)(F)F)c1 | 0.0117
14 | COc1cc(/C=C/c2nc(N)nc(-c3ccccc3O)n2)cc(OC)c1OC | -0.115
15 | Cc1cc(OCC(O)CN2CCN(CCO)CC2)ccc1C(C)C (stereo unspecified) | -0.0316
16 | COc1cc(C(=S)N2CCOCC2)ccc1OS(=O)(=O)c1ccc(NC(C)=O)cc1 | -0.421
17 | O=[N+]([O-])c1ccc(S(=O)(=O)N/N=C/c2cccs2)cc1 | -0.273
18 | C/C(=N\NC(=O)Nc1ccccc1)c1ccc2ccccc2c1 | -0.112
19 | CCCNC(=O)NC(=O)COC(=O)c1cccc(NS(=O)(=O)c2ccc(F)c(F)c2)c1 | 0.299
20 | Clc1cc2nc3ccccn3c2cc1Cl | 1.18
21 | Cc1cccc(N2CCN(C(c3cccs3)c3nnnn3C(C)(C)C)CC2)c1C (stereo unspecified) | 0.0116
22 | Cc1nnc2sc(-c3ccc(NC(=O)c4ccc(-c5ccc(Br)cc5)o4)cc3)nn12 | 0.0525
23 | Cn1c(CCNC(=O)c2ccc(Cl)c(Cl)c2)nnc1SCc1ccc(Cl)c(Cl)c1 | -0.0689

Row | SMILES | z-score
24 | CCOC(=O)c1sc(NC(=O)CCCCl)nc1C | -0.167
25 | CCC1(CC)C(=O)NC(=O)NC1=Nc1cccc(OC)c1 | -0.0162
26 | COc1ccc(CCC(=O)Nc2nc3ccccc3[nH]2)cc1 | -0.509
27 | COc1ccc(C(=O)NNC(=S)NC(=O)c2ccccc2[N+](=O)[O-])cc1 | -0.094
28 | Cc1cc(C)cc(NC(=O)c2cccn2-c2ncc(C(F)(F)F)cc2Cl)c1 | -0.28
29 | CCCCOP(=O)(OCCCC)C(Nc1ccccc1)c1ccc2c(c1)OCO2 (stereo unspecified) | 0.0364
30 | C=CCSc1nc(C)c2cc(C)cc(C)c2n1 | -0.597
31 | CCc1c(C)nc2ncnn2c1NCCc1ccc(OC)cc1 | -0.254
32 | c1ccc2c(Cn3ccnc3)c[nH]c2c1 | -0.416
33 | O=C(c1ccccc1)N1CCc2ccccc21 | 0.518
34 | Cc1cc(C)cc(-n2nnnc2SCC(=O)Nc2nc(-c3ccc(F)cc3)cs2)c1 | -0.233
35 | O=C(O)C1CC=CCC1C(=O)NCc1ccc2c(c1)OCO2 (stereo unspecified) | -0.618
36 | N#Cc1ccc(NC(=O)CN2C(=O)NC(Cc3ccccc3)C2=O)cc1 (stereo unspecified) | -0.0901
37 | CC1(C)Cc2c(sc3nc(-c4ccccc4)n(N)c(=O)c23)CO1 | 0.829
38 | O=C(c1cnc2n(c1=O)CCS2)N1CCN(C(c2ccccc2)c2ccc(Cl)cc2)CC1 (stereo unspecified) | -0.611
39 | Cc1csc(=NC(=O)c2ccccc2)n1CCO | -0.216
40 | CC12CCC(C(=O)N(CSC(=S)N/N=C\c3ccccc3)C1=O)C2(C)C (stereo unspecified) | active: 16.4
41 | CCCc1cc(C(=O)Nc2sc3c(c2C#N)CCC3)no1 | 2.21
42 | CCN(CC(=O)NC(C)C)C(=O)C(CCSC)NC(=O)c1cccc(C)c1 (stereo unspecified) | -0.0113
43 | O=C(NCCN1C(=O)S/C(=C\c2ccc(F)cc2)C1=O)c1cccc(S(=O)(=O)N2CCOCC2)c1 | -0.00437
44 | Cc1ccccc1OCC(=O)Nc1cccc2nsnc12 | 0.348
45 | Cc1ccc(C(=O)NNC(=S)Nc2cccc3ccccc23)s1 | 1.65
46 | Cc1ccc(NC(=O)CSCC(=O)N2CCOCC2)cc1 | 0.116

Row | SMILES | z-score
47 | COc1ccc(Cl)cc1-c1nc(N)nc(N(C)C)n1 | -0.0414
48 | Clc1ccc(-c2nc3ccccc3nc2-c2ccccc2)cc1 | -1.47
49 | O=C(Cc1ccc([N+](=O)[O-])cc1)N1CCN=C1SCc1ccccc1 | -0.118
50 | COc1ccc(C(CCN(Cc2ccc(OC)c(OC)c2)C(C)=O)c2ccccc2)cc1 (stereo unspecified) | -0.175
51 | Cc1nn(-c2ncc(C(F)(F)F)cc2Cl)c(=O)n1-c1ccccc1Cl | -0.751
52 | CCOC(=O)c1c(NC(=O)COc2ncnc3sccc23)sc2c1CCC2 | -0.175
53 | Cc1cc(Br)ccc1OCC(=O)N(Cc1nc(-c2ccccc2)no1)C(C)C | 0.16
54 | Cc1nn(CCC(N)=O)c2nc(-c3cccs3)cc(C(F)(F)F)c12 | -0.283
55 | Cc1ccc(-n2c(Cc3cccn3C)nnc2SCC(=O)N2CCN(c3ccccc3)CC2)cc1 | -0.835
56 | CCN(C(=O)CSc1nc2cc(C(F)(F)F)ccc2n1Cc1ccccc1)C1CCS(=O)(=O)C1 (stereo unspecified) | -0.724
57 | O=C(O)c1cc(Nc2nc(N3CCOCC3)nc(N3CCOCC3)n2)ccc1Cl | -0.694
58 | CCCC1=C(C(=O)OCC)C(/C=C/c2ccccc2)n2ncnc2N1 (stereo unspecified) | -0.104
59 | CCOC(=O)c1c(N)sc2c1CCC(CC)C2 (stereo unspecified) | 0.0842
60 | CCOc1ccc(NC(=O)CN(c2cccc(C(F)(F)F)c2)S(C)(=O)=O)cc1 | 1.26
61 | CC[n+]1c(S(=O)(=O)[O-])ccc2ccc(C)cc21 | -0.0122
62 | COc1cc(C(=O)Nc2ccc3c(c2)OCCO3)c(-n2cnnn2)cc1OC | -0.262
63 | Nc1ccc(Oc2ccc3nc(-c4ccccc4)c(-c4ccc([N+](=O)[O-])cc4)nc3c2)cc1 | 0.524
64 | CCN(CC)S(=O)(=O)c1ccc2nc(COC(=O)c3n[nH]c4ccccc34)[nH]c2c1 | -0.13
65 | COc1ccc(OC)c(S(=O)(=O)NCc2cn3c(C)csc3n2)c1 | -0.389
66 | COc1ccc(N=C2SC(C(N)=O)CC(=O)N2CCc2ccc(OC)c(OC)c2)cc1 (stereo unspecified) | -0.154
67 | Nc1nonc1C(=O)NCCNS(=O)(=O)c1ccc(Br)cc1 | 0.00497
68 | COc1cccc(-n2sc3c(c2=S)-c2cc(OC)ccc2NC3(C)C)c1 | -0.0597
69 | Cc1cc(C)cc(NC(=O)c2cccc(NC(=O)C3C4CC5OC(=O)C3C5C4)c2)c1 (stereo unspecified) | -0.409

Row | SMILES | z-score
70 | Cc1cc(C2(c3ccc(O)c(C)c3)C(=O)Nc3ccccc32)ccc1O | -0.184
71 | O=C1c2ccccc2NC(c2ccco2)N1O (stereo unspecified) | -0.422
72 | Cc1cccc(C)c1NC(=O)COC(=O)c1cccc2c1C(=O)c1ccccc1C2=O | 0.188
73 | O=C(NN1C(=O)c2ccccc2C1=O)C1C2CCCCC21 (stereo unspecified) | -0.161
74 | O=C(CSc1nnc(NC(=O)c2ccco2)s1)NC1CCCC1 | -0.136
75 | O=C1C=C(NCc2ccncc2)CC(c2ccccc2)C1 (stereo unspecified) | -0.117
76 | O=S(=O)(c1cccc(-c2nc3ccccc3s2)c1)N1CCOCC1 | -0.153
77 | c1ccc(CSCc2cn3ccsc3n2)cc1 | -0.197
78 | Cc1nc(NCCc2ccc(S(N)(=O)=O)cc2)c2c3c(sc2n1)CCC3 | -0.34
79 | CCCCn1nc2cc(C(=O)NC[C@@H]3CCCO3)ccc2c1OCC | -0.052
80 | NC(=O)c1c(-c2cccs2)csc1N | -0.161
81 | Cc1onc(-c2ccccc2)c1C(=O)N1CCN(C(=O)c2ccco2)CC1 | 0.214
82 | O=C(NC(NCc1ccccn1)(C(F)(F)F)C(F)(F)F)c1ccco1 | -0.08
83 | O=C(CSc1nnc(-c2ccc(F)cc2)c2ccccc12)Nc1ccccc1Cl | -0.422
84 | Clc1ccc(CSc2nnc(CN3CCOCC3)n2-c2ccccc2)cc1Cl | 0.963
85 | COC(=O)CN(c1nc(C)c(Br)c(OC)n1)S(=O)(=O)c1ccc(C)cc1 | 0.0294
86 | C=CCn1c(=O)c2c(C)c(C)sc2n2c(Nc3ccc(OC)cc3)nnc12 | active: -3.68
87 | COc1ccc2c(c1)c(C(=O)CN1CCC(C(N)=O)CC1)c(C)n2C | -0.152
88 | Cc1ccc(S(=O)(=O)NNC(=O)c2sc3nc(C)cc(C)c3c2-n2cccc2)cc1 | -0.555
89 | COC(=O)c1ccc(Sc2ccc(Cl)cc2)c(N)c1 | 0.192
90 | CCOC(=O)c1c(C)[nH]c(C(=O)CSc2nnnn2-c2ccc(C)cc2)c1C | -1.6
91 | O=C(COC(=O)CC(NC(=O)c1ccccc1Cl)c1ccccc1)Nc1cccc(F)c1 (stereo unspecified) | 0.435
92 | Cc1cc(OC(C)C(=O)N/N=C/CC(C)c2ccccc2)ccc1Cl (stereo unspecified) | 0.358

Row | SMILES | z-score
93 | COc1ccc(S(=O)(=O)Nc2ccc3c(c2)OCCO3)cc1Cl | 0.438
94 | O=S(=O)(NCc1ccc2c(c1)OCO2)c1ccc2c(c1)oc1ccccc12 | 0.0903
95 | Cc1c(Cl)c(C(=O)NC2CCCC2)nn1C | -0.302
96 | COc1ccccc1Oc1nc(-c2ccccc2)cc(C)c1S(C)(=O)=O | -0.257
97 | CCCc1cc(-c2n[nH]c(=S)n2CC)c2ccccc2n1 | -0.443
98 | CCCCn1c(=S)[nH]c2c(oc3ccc(Cl)cc32)c1=O | active: 13.1
99 | COC(=O)CCCCC1SCC2NC(=O)NC21O (stereo unspecified) | 0.189
100 | COC(=O)C1C(=O)NCC1c1ccc(C)cc1 (stereo unspecified) | 0.227
101 | CCCCC(=O)NC(NC(=S)N1CCOCC1)C(Cl)(Cl)Cl (stereo unspecified) | 0.487
102 | CCc1ccc(NC(=O)CCn2c(=O)oc3ccccc32)cc1 | 0.0251
103 | O=C(CN1C(=O)c2cccc3cccc1c23)N1CCN(c2cccc(Cl)c2)CC1 | -0.225
104 | Cc1ccc(-c2nc3ccccc3o2)cc1NC(=O)Cc1cccs1 | -0.149
105 | O=C(NNC(=O)c1cc2cc3ccccc3nc2s1)c1ccc(F)cc1 | 0.133
106 | CCCNc1c(NC(C)=O)c(=O)oc2ccccc12 | -0.104
107 | O=S(=O)(c1ccc(F)cc1)N1CN(Cc2ccco2)c2nc3ccccc3nc21 | -1.23
108 | CCc1nc2c(c(=O)c3ccccc3n2C)c(=O)n1-c1ccc(F)cc1 | -0.613
109 | Cc1cc(-c2n[nH]c(=S)n2/N=C/c2cc([N+](=O)[O-])ccc2Cl)n[nH]1 | -0.544
110 | Cc1ccc(-c2nn(-c3ccccc3)cc2/C=C/C(=O)Nc2nccs2)cc1 | -0.147
111 | Cc1ccc(O)c(C(=O)c2coc(=N)c(C(=O)NC(C)C)c2)c1 | 0.409
